In PubChem BioAssay AID504842 (National Center for Advancing Translational Sciences (NCATS), 2011):
Where “and” joins values, the source holds several entries; their conditions need not be identical. Equal entries are not always repeated. Out of some 330,000 compounds screened, about 100 (0.03%) were called active. Not shown: some 1% with an inconclusive outcome. Calls come from the whole dose curve; as a rule, active = well fitted inhibition curve with a large enough effect; inconclusive = small, poorly fitted or top-dose-only effect; inactive = flat fitted curve, though single readings scatter. The list shows a part of the results, in another mix than the full data.

System: Chaperonin Mm-Cpn (Methanococcus maripaludis)
Test: Inhibitors of TCP-1 ring complex (TRiC) of Methanococcus maripaludis (MmCpn): qHTS; note: nearly all actives have a fitted effect of over 80% in size
Details: purified Mm-Cpn ATPase, ADP Transcreener TR-FRET; at 76.9 µM (top of the series)
Description: The eukaryotic chaperonin TRiC (for TCP-1 ring complex) is an essential and conserved chaperone required for the folding and activation of 10-15% of the proteins encoded by the human genome. […] The TRiC complex consist of two stacked 7-9 membered rings, each containing a central cavity. Substrates are folded within the cavity in an ATP-dependent manner. TRiC is a complex of eight different, essential proteins. As each of the genes encoding the eight subunits is essential for cell viability and no protocol has been developed to over-express this enzyme to high levels. That is why several groups studying the TRiC chaperonin have turned to the archaeal homolog of TRiC, Methanococcus maripaludis (Mm-CPN), and have used this enzyme as a model system for the study of the type II chaperonin family. Small molecule inhibitors of the Mm-CPN enzyme would be extremely useful to study the mechanism of chaperonin activity. Importantly, TRiC and Mm-CPN both require ATP hydrolysis for function. Furthermore, the ATP binding sites are highly conserved among these type II chaperonins. This provides us with an easy, well tested and straightforward assay to identify inhibitors of chaperonin activity. The Mm-CPN assay was developed in 1536-well plate format using the HTRF Transcreener ADP assay kit (Cisbio, Bedford, MA). This assay applied the time resolved fluorescence resonance energy transfer (TR-FRET) principle. ATP in the presence of Mm-CPN is converted to ADP + Pi. An antibody labeled with Eu3+-Cryptate specific and bound to ADP labeled with […] (d2) competes with the unlabeled ADP generated by Mm-CPN. The resulting TR-FRET signal is inversely proportional to the concentration of ADP in the sample. In this assay a reduction in TR-FRET signal is observed with ATP turnover. NIH Chemical Genomics Center [NCGC] NIH Molecular Libraries Probe Centers Network [MLPCN] MLPCN Grant: DA030554-01A1 Assay Submitter (PI): Judith Frydman, Stanford University
Purified Mm-CPN was supplied by the laboratory of Dr. Judith Frydman. Protein samples were stored at -80C as single use aliquots. Protein was thawed in ambient temperature water bath and placed on ice once thawed. Buffer was prepared fresh day of screen. The buffer composition below was used to prepare the working solution of the Mm-CPN protein and ATP substrate. The buffer is comprised of 30 mM TRIS pH 7.4, 100mM KCl, 5mM MgCl2, and 1mM DTT. A final concentration of 25nM Mm-CPN and 10uM ATP per well were used in the screen. Instructions according to the manufacturer were followed for the ADP Transcreener kit. Used 1536 well Greiner white, medium binding (MB), solid bottom plates. Plates were read on the PerkinElmer EnVision plate reader using Excitation = 320 nm and Emission = […], 665 nm. Protocol- 1.Dispense 1.5ul per well of working [Mm-CPN] = 50nM (or 75 ng / well) 2.Spin plate at 1000 rpm for 30 seconds 3.23nl of compound transferred per well 4.Incubate at 37degC for 10 minutes 5.Dispense 1.5ul per well of working [ATP] = 20uM 6.Incubate at 37degC for 30 minutes 7.Dispense 3ul per well of Anti-ADP Cryptate / ADP-d2 mix (prepared as instructed by Cisbio) 8.Incubate at ambient for 30 minutes 9.Read using EnVision
% is set by controls: 0 for no effect and ±100 for the full control effect.

| SMILES | activity, negative = inhibition |
| --- | --- |
| C=C1[C@H]2CC[C@H]3[C@]4(C)C[C@H](O[C@H]5O[C@H](CO)[C@@H](OS(=O)(=O)O)[C@H](OS(=O)(=O)O)[C@H]5OC(=O)CC(C)C)C[C@@H](C(=O)O)[C@H]4CC[C@]3(C2)[C@H]1O | inactive: -1.19% |
| O=C1NCCOC(=O)[C@H](Cc2ccc(F)cc2)CC/C=C/C[C@H]1CC(=O)N(CCO)Cc1ccccc1 | inactive: -2.51% |
| O=C1NCCOC(=O)[C@@H](Cc2ccc(F)cc2)CC/C=C/C[C@H]1CC(=O)N(CCO)Cc1ccccc1 | inactive: 3.1% |
| O=C1NCCOC(=O)[C@@H](Cc2ccc(F)cc2)CC/C=C/C[C@@H]1CC(=O)N(CCO)Cc1ccccc1 | inactive: -2.81% |
| NC(N)=Nc1ccc2[nH]c3c(c2c1)C[C@@]1(O)[C@H]2Cc4ccc(O)c5c4[C@@]1(CCN2CC1CC1)C3O5 (stereo partly drawn) | inactive: -0.121% |
| CSc1ncc(Cl)c(C(=O)O)n1 (tested in a mixture with another compound) | inactive: -0.62% |
| C=CCN1CC[C@]23c4c5ccc(O)c4O[C@H]2C(=O)CC[C@@]3(O)[C@H]1C5 | inactive: -0.634% and inactive: -2.16% |
| Clc1ccc2c(c1)CCc1cccnc1C2=C1CCNCC1 | inactive: -6.58% |
